Results: article PMC10575996
No constants are given. Whether binding was seen depends on the method and setting. In cells and extracts the contact can be indirect. Some binding calls cover weakened binding; strength is not graded here. For some assays here: Where a sequence is shown, tags or fusion partners need not be part of it. Values belong to the binder of their own block, whether it stands above or below them.

Sequences of proteins named here, by UniProt entry; tags and fusion partners are left off. A change or cut given only in a name is not applied to a line headed by its entry. Residues count along the entry.
UniProt O95863: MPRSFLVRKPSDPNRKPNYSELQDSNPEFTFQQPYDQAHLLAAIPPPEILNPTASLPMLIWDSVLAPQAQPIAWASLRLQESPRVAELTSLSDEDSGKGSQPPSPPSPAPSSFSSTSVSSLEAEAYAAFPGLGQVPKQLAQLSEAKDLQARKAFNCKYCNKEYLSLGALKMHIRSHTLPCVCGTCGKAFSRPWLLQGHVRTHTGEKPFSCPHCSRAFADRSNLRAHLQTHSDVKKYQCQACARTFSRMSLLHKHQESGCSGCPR
HA-Snail1^C-term(152–264): residues 152-264 of O95863

What was measured:
[1] = biological target: HA-Snail1^C-term(152–264) (human) (UniProt O95863); test: co-IP; HEK-293 cells co-transfected with tagged plasmids, MG132 10 μM for 6 h; anti-HA or anti-Flag beads overnight; wash 20 mM Tris-HCl, 250 mM NaCl, 0.2 mM EGTA, 0.1% Nonidet P-40 (Fig. 4a, b, d)
HA-Snail1^K157R (human) = HA-Snail1^K157R (human) (UniProt O95863); test: co-IP; HCC1806 cells transfected with HA-Snail1 WT or K157R for 48 h, MG132 for 6 h; immunoprecipitation-western blot; complexes 'in the nucleolus' (Fig. 4f)
HA-Snail1 (human) [2] = biological target: HA-Snail1 (human) (UniProt O95863); test: as above
[3] = biological target: Snail1 (endogenous) (human (endogenous in HCC1806)) (UniProt O95863); test: co-IP; endogenous co-IP from lysate of purified nucleoli of HCC1806 cells; high salt RIPA buffer (50 mM Tris pH 7.5, 500 mM NaCl, 1% Nonidet P-40, 0.5% deoxycholate); primary antibody or normal IgG overnight at 4 °C, protein A/G beads
[4] = biological target: HA-Snail1^K146R/K206R (human) (UniProt O95863); test: co-IP; immunoprecipitation of Snail1 WT or 2KR with USP36 (Supplementary Fig. S2b); cells and beads not shown
HA-Snail1 (human) [5] = biological target: HA-Snail1 (human) (UniProt O95863); test: as above
HA-Snail1 (human) [6] = biological target: HA-Snail1 (human) (UniProt O95863); test: co-IP; immunoprecipitation of USP36 (WT or C131A) with Snail1, with or without the E1 inhibitor TAK-243 to block ubiquitination (Supplementary Fig. S2c); cells and beads not shown

binding [1]: binds
B1: Flag-USP36^N-term(1–423) (domain or fragment, UniProt Q9P275 1-423)
chain: MPIVDKLKEALKPGRKDSADDGELGKLLASSAKKVLLQKIEFEPASKSFSYQLEALKSKYVLLNPKTEGASRHKSGDDPPARRQGSEHTYESCGDGVPAPQKVLFPTERLSLRWERVFRVGAGLHNLGNTCFLNATIQCLTYTPPLANYLLSKEHARSCHQGSFCMLCVMQNHIVQAFANSGNAIKPVSFIRDLKKIARHFRFGNQEDAHEFLRYTIDAMQKACLNGCAKLDRQTQATTLVHQIFGGYLRSRVKCSVCKSVSDTYDPYLDVALEIRQAANIVRALELFVKADVLSGENAYMCAKCKKKVPASKRFTIHRTSNVLTLSLKRFANFSGGKITKDVGYPEFLNIRPYMSQNNGDPVMYGLYAVLVHSGYSCHAGHYYCYVKASNGQWYQMNDSLVHSSNVKVVLNQQAYVLFYLRI

binding (HA-Snail1^K157R (human)): no binding
binding (HA-Snail1 (human) [2]): binds
binding [3]: binds
B2: USP36 (endogenous) (enzyme, UniProt Q9P275 1-1123)
chain: MPIVDKLKEALKPGRKDSADDGELGKLLASSAKKVLLQKIEFEPASKSFSYQLEALKSKYVLLNPKTEGASRHKSGDDPPARRQGSEHTYESCGDGVPAPQKVLFPTERLSLRWERVFRVGAGLHNLGNTCFLNATIQCLTYTPPLANYLLSKEHARSCHQGSFCMLCVMQNHIVQAFANSGNAIKPVSFIRDLKKIARHFRFGNQEDAHEFLRYTIDAMQKACLNGCAKLDRQTQATTLVHQIFGGYLRSRVKCSVCKSVSDTYDPYLDVALEIRQAANIVRALELFVKADVLSGENAYMCAKCKKKVPASKRFTIHRTSNVLTLSLKRFANFSGGKITKDVGYPEFLNIRPYMSQNNGDPVMYGLYAVLVHSGYSCHAGHYYCYVKASNGQWYQMNDSLVHSSNVKVVLNQQAYVLFYLRIPGSKKSPEGLISRTGSSSLPGRPSVIPDHSKKNIGNGIISSPLTGKRQDSGTMKKPHTTEEIGVPISRNGSTLGLKSQNGCIPPKLPSGSPSPKLSQTPTHMPTILDDPGKKVKKPAPPQHFSPRTAQGLPGTSNSNSSRSGSQRQGSWDSRDVVLSTSPKLLATATANGHGLKGNDESAGLDRRGSSSSSPEHSASSDSTKAPQTPRSGAAHLCDSQETNCSTAGHSKTPPSGADSKTVKLKSPVLSNTTTEPASTMSPPPAKKLALSAKKASTLWRATGNDLRPPPPSPSSDLTHPMKTSHPVVASTWPVHRARAVSPAPQSSSRLQPPFSPHPTLLSSTPKPPGTSEPRSCSSISTALPQVNEDLVSLPHQLPEASEPPQSPSEKRKKTFVGEPQRLGSETRLPQHIREATAAPHGKRKRKKKKRPEDTAASALQEGQTQRQPGSPMYRREGQAQLPAVRRQEDGTQPQVNGQQVGCVTDGHHASSRKRRRKGAEGLGEEGGLHQDPLRHSCSPMGDGDPEAMEESPRKKKKKKRKQETQRAVEEDGHLKCPRSAKPQDAVVPESSSCAPSANGWCPGDRMGLSQAPPVSWNGERESDVVQELLKYSSDKAYGRKVLTWDGKMSAVSQDAIEDSRQARTETVVDDWDEEFDRGKEKKIKKFKREKRRNFNAFQKLQTRRNFWSVTHPAKAASLSYRR

binding [4]: binds
binding (HA-Snail1 (human) [5]): binds
binding (HA-Snail1 (human) [6]): binds
B3: Flag-USP36 (enzyme, UniProt Q9P275 1-1123)
chain: MPIVDKLKEALKPGRKDSADDGELGKLLASSAKKVLLQKIEFEPASKSFSYQLEALKSKYVLLNPKTEGASRHKSGDDPPARRQGSEHTYESCGDGVPAPQKVLFPTERLSLRWERVFRVGAGLHNLGNTCFLNATIQCLTYTPPLANYLLSKEHARSCHQGSFCMLCVMQNHIVQAFANSGNAIKPVSFIRDLKKIARHFRFGNQEDAHEFLRYTIDAMQKACLNGCAKLDRQTQATTLVHQIFGGYLRSRVKCSVCKSVSDTYDPYLDVALEIRQAANIVRALELFVKADVLSGENAYMCAKCKKKVPASKRFTIHRTSNVLTLSLKRFANFSGGKITKDVGYPEFLNIRPYMSQNNGDPVMYGLYAVLVHSGYSCHAGHYYCYVKASNGQWYQMNDSLVHSSNVKVVLNQQAYVLFYLRIPGSKKSPEGLISRTGSSSLPGRPSVIPDHSKKNIGNGIISSPLTGKRQDSGTMKKPHTTEEIGVPISRNGSTLGLKSQNGCIPPKLPSGSPSPKLSQTPTHMPTILDDPGKKVKKPAPPQHFSPRTAQGLPGTSNSNSSRSGSQRQGSWDSRDVVLSTSPKLLATATANGHGLKGNDESAGLDRRGSSSSSPEHSASSDSTKAPQTPRSGAAHLCDSQETNCSTAGHSKTPPSGADSKTVKLKSPVLSNTTTEPASTMSPPPAKKLALSAKKASTLWRATGNDLRPPPPSPSSDLTHPMKTSHPVVASTWPVHRARAVSPAPQSSSRLQPPFSPHPTLLSSTPKPPGTSEPRSCSSISTALPQVNEDLVSLPHQLPEASEPPQSPSEKRKKTFVGEPQRLGSETRLPQHIREATAAPHGKRKRKKKKRPEDTAASALQEGQTQRQPGSPMYRREGQAQLPAVRRQEDGTQPQVNGQQVGCVTDGHHASSRKRRRKGAEGLGEEGGLHQDPLRHSCSPMGDGDPEAMEESPRKKKKKKRKQETQRAVEEDGHLKCPRSAKPQDAVVPESSSCAPSANGWCPGDRMGLSQAPPVSWNGERESDVVQELLKYSSDKAYGRKVLTWDGKMSAVSQDAIEDSRQARTETVVDDWDEEFDRGKEKKIKKFKREKRRNFNAFQKLQTRRNFWSVTHPAKAASLSYRR

binding (HA-Snail1 (human) [6]): binds
B4: Flag-USP36^C131A (enzyme, UniProt Q9P275 1-1123)
chain: MPIVDKLKEALKPGRKDSADDGELGKLLASSAKKVLLQKIEFEPASKSFSYQLEALKSKYVLLNPKTEGASRHKSGDDPPARRQGSEHTYESCGDGVPAPQKVLFPTERLSLRWERVFRVGAGLHNLGNTAFLNATIQCLTYTPPLANYLLSKEHARSCHQGSFCMLCVMQNHIVQAFANSGNAIKPVSFIRDLKKIARHFRFGNQEDAHEFLRYTIDAMQKACLNGCAKLDRQTQATTLVHQIFGGYLRSRVKCSVCKSVSDTYDPYLDVALEIRQAANIVRALELFVKADVLSGENAYMCAKCKKKVPASKRFTIHRTSNVLTLSLKRFANFSGGKITKDVGYPEFLNIRPYMSQNNGDPVMYGLYAVLVHSGYSCHAGHYYCYVKASNGQWYQMNDSLVHSSNVKVVLNQQAYVLFYLRIPGSKKSPEGLISRTGSSSLPGRPSVIPDHSKKNIGNGIISSPLTGKRQDSGTMKKPHTTEEIGVPISRNGSTLGLKSQNGCIPPKLPSGSPSPKLSQTPTHMPTILDDPGKKVKKPAPPQHFSPRTAQGLPGTSNSNSSRSGSQRQGSWDSRDVVLSTSPKLLATATANGHGLKGNDESAGLDRRGSSSSSPEHSASSDSTKAPQTPRSGAAHLCDSQETNCSTAGHSKTPPSGADSKTVKLKSPVLSNTTTEPASTMSPPPAKKLALSAKKASTLWRATGNDLRPPPPSPSSDLTHPMKTSHPVVASTWPVHRARAVSPAPQSSSRLQPPFSPHPTLLSSTPKPPGTSEPRSCSSISTALPQVNEDLVSLPHQLPEASEPPQSPSEKRKKTFVGEPQRLGSETRLPQHIREATAAPHGKRKRKKKKRPEDTAASALQEGQTQRQPGSPMYRREGQAQLPAVRRQEDGTQPQVNGQQVGCVTDGHHASSRKRRRKGAEGLGEEGGLHQDPLRHSCSPMGDGDPEAMEESPRKKKKKKRKQETQRAVEEDGHLKCPRSAKPQDAVVPESSSCAPSANGWCPGDRMGLSQAPPVSWNGERESDVVQELLKYSSDKAYGRKVLTWDGKMSAVSQDAIEDSRQARTETVVDDWDEEFDRGKEKKIKKFKREKRRNFNAFQKLQTRRNFWSVTHPAKAASLSYRR
